The whole screen tested about 150,000 compounds, of which about 540 (0.36%) showed an effect of 50% or more. Some of the results follow.
Each compound was assayed on Plasmodium falciparum (assay: Primary screen in NF54 nanoGlo assay, in single point, at 2uM, 72h; a lower Z score goes with more inhibition). Conditions: timepoint 72 hour.
Type: functional, Erythrocyte
For CC(=O)N1CCN(C(=O)[C@H]2C[C@@H]2c2ccncc2)C(C)(C)C1, the “% Inhibition” value was 4% and the Z score was -0.42. With Cc1nc2ncnn2c(O)c1NC(=O)c1c(-c2ccccc2Cl)noc1C the “% Inhibition” value was 30% and the Z score was -3.41. With CN(CCN1CCCCC1=O)Cc1ccc(CN2CCCC2)s1 the “% Inhibition” value was -12% and the Z score was 2.24. For Cc1noc2ncnc(N3CCC[C@H]3C3CCC3)c12, the “% Inhibition” value was -5% and the Z score was 0.46. In the case of COc1ccccc1OCCN1C[C@@H](C(=O)Nc2nccs2)CC1=O, the “% Inhibition” value was -4% and the Z score was 0.44. For C[C@@H](c1ccccc1)N(Cc1nc(C(=O)NCc2ccccc2)co1)Cc1ccc(Cl)cc1Cl, the “% Inhibition” value was -5% and the Z score was 0.95. In the case of c1ccc(-c2nc(N3CCn4cnnc4C3)no2)cc1, the “% Inhibition” value was -13% and the Z score was 2.08. With Cc1cc(C)n(C2CN(C(=O)c3cnnn3-c3ccccc3)C2)n1 the “% Inhibition” value was 0% and the Z score was 0. Cc1nc(-c2cccc(NC(=O)N(C)CC3(CO)CCOCC3)c2)cs1 was tested, and the “% Inhibition” value was -15% and the Z score was 1.43. N#CC1CN(C(=O)[C@H]2CCCO2)CCN1C(=O)[C@H]1CCCO1 (stereo partly specified) was tested, and the “% Inhibition” value was 8% and the Z score was -1.25. For CC(C)(C)c1nnc(NCCCN2CCOCC2)[nH]c1=O, the “% Inhibition” value was 12% and the Z score was -1.9. For O=C1C[C@@H](C(=O)Nc2ccc(Oc3ccccc3)cc2)n2ncnc2N1, the “% Inhibition” value was 4% and the Z score was -0.62. With CCOC(=O)C1CCN(C(=O)[C@H](CC)N(c2nc(-c3ccc(OC)cc3)cs2)c2ccccc2Cl)CC1 the “% Inhibition” value was -6% and the Z score was 0.68. For O=C1N(c2ccccc2)Cc2nn(C3CCCC3)c(=O)n21, the “% Inhibition” value was -16% and the Z score was 2.05. For Cn1cc(C(=O)NC2CCN(C[C@H]3CCCO3)CC2)c(=O)c2ccccc21, the “% Inhibition” value was -2% and the Z score was 0.35. In the case of CC(C)n1cnc2cc(CNC(=O)c3ccco3)ccc21, the “% Inhibition” value was -22% and the Z score was 2.14. For COc1ccccc1N(C)CCCS(=O)(=O)N(C)C, the “% Inhibition” value was -3% and the Z score was 0.35. In the case of Cc1ccc(NC(=O)NCCn2c(-c3ccccc3)nc3cccnc32)c(C)c1, the “% Inhibition” value was 7% and the Z score was -1.24. With CC1(C)[C@@H]2CCC13CS(=O)(=O)N(CC(=O)Nc1ccc(N4CCOCC4)cc1)[C@H]3C2 the “% Inhibition” value was -5% and the Z score was 0.66. CCC1C(=O)NCCN1C(=O)C1CC12CCc1ccccc12 (stereo unspecified) was tested, and the “% Inhibition” value was -1% and the Z score was 0.18. In the case of C#CCN(C(=O)c1ccc(N2CCCC2)nc1)C1CCCCC1, the “% Inhibition” value was -18% and the Z score was 2.33. Nc1nnnn1CC(=O)N1CC[C@H]1c1ccc(F)cc1 was tested, and the “% Inhibition” value was -1% and the Z score was 0.13. In the case of CCCc1cc(C(=O)N2CCC([C@H](Cc3ccc(F)cc3F)N(C)C(=O)c3cccnc3)CC2)no1, the “% Inhibition” value was -13% and the Z score was 1.68. In the case of C#CCN(Cc1ccco1)Cc1cn(C)nc1-c1ccccc1F, the “% Inhibition” value was -5% and the Z score was 0.76. In the case of CCc1noc(NC(C)=O)c1-c1ccc(C)c(S(=O)(=O)NC2CCCCCC2)c1, the “% Inhibition” value was -7% and the Z score was 0.98. In the case of O=S(=O)(Cc1ccccc1)NCCn1nc(-c2cnccn2)cc1C1CC1, the “% Inhibition” value was 15% and the Z score was -1.86. For CCOC(=O)N1CCC(NC(=O)c2c[nH]c3cc(C)nn3c2=O)CC1, the “% Inhibition” value was -3% and the Z score was 0.52. In the case of CN(Cc1cc(F)ccc1Br)C1CCN(c2ccccn2)CC1, the “% Inhibition” value was -3% and the Z score was 0.31. In the case of COc1cc(C(=O)NC[C@H]2CCCCN2C2CC2)ncn1, the “% Inhibition” value was -2% and the Z score was 0.38. For CCOc1ccccc1OS(=O)(=O)c1cccc(C(=O)NC[C@H](c2ccc(N(C)C)cc2)c2c[nH]c3ccccc23)c1, the “% Inhibition” value was -13% and the Z score was 2.05. With CCC=C(C)C(=O)NCc1ccc(C#N)cc1 the “% Inhibition” value was -6% and the Z score was 0.57. In the case of COCCNC(=O)c1ccc(Br)cc1O, the “% Inhibition” value was -5% and the Z score was 1.08. With Cc1ncsc1CNC(=O)[C@H]1CCc2ccccc2C1 the “% Inhibition” value was -7% and the Z score was 0.91. For O=C(CC(=O)Nc1cc(Cl)cc2c1OCC2)NCC(F)(F)F, the “% Inhibition” value was 30% and the Z score was -3.4. With CCn1c([C@H]2CC(=O)N(C)C2)n[nH]c1=O the “% Inhibition” value was -17% and the Z score was 2.98. With O=C1C[C@H](c2ccc(F)c(F)c2F)c2cnn(Cc3ccco3)c2N1 the “% Inhibition” value was -2% and the Z score was 0.32. For O=C(O)C[C@@H]1CCN(Cc2ccccc2)C[C@@H]1Cc1nc2cnccc2[nH]1, the “% Inhibition” value was -6% and the Z score was 0.96. In the case of Cc1onc(C(=O)N2CCC3(CC2)CC[C@]3(C)O)c1Cn1cccn1, the “% Inhibition” value was 42% and the Z score was -5.22. With CN1CCN(C(=O)CCOCC(F)(F)F)c2ccccc2C1 the “% Inhibition” value was -4% and the Z score was 0.55. CCC(C)CC(C)NC(=O)c1c[nH]c(C)cc1=O (stereo unspecified) was tested, and the “% Inhibition” value was 34% and the Z score was -3.81. CS(=O)(=O)c1ccc(OCc2noc(-c3ccco3)n2)cc1 was tested, and the “% Inhibition” value was -17% and the Z score was 3.04. For O=C1OCC[C@@H]1N1CCc2ccccc2CC1, the “% Inhibition” value was -5% and the Z score was 0.74. In the case of Cc1nc(C(C)C)c(Cc2ccc(F)cc2)c(N2CCN(C(=O)c3ccccc3Cl)CC2)n1, the “% Inhibition” value was 6% and the Z score was -0.61. For CN1N=C(C(=O)N[C@H]2CCCc3c2cnn3-c2ccc(F)cc2F)CCC1=O, the “% Inhibition” value was -9% and the Z score was 1.28. Cc1nc(C2CC2)nc(N2CCN(C(=O)c3ccc(F)cc3)CC2)c1Cc1ccc(Cl)cc1Cl was tested, and the “% Inhibition” value was -4% and the Z score was 0.7. With CCCc1cc2c(cc1N(C(=O)C1CCC(=O)N1)C(=O)C1CCC(=O)N1)OCO2 (stereo unspecified) the “% Inhibition” value was -4% and the Z score was 0.55. For CNC(=O)CCN(C)C(=O)c1ccc(-c2cn(C(F)F)nc2C)cc1, the “% Inhibition” value was -19% and the Z score was 2.37. Cc1nn(C)c(=O)n1C1CCN(C(=O)CC2CCCCC2)CC1 was tested, and the “% Inhibition” value was 5% and the Z score was -0.67. In the case of CC(C)(C)C1CCC2(CC1)CC(=O)c1ccc(OCC(=O)NCCN3CCOCC3)cc1O2 (stereo unspecified), the “% Inhibition” value was -9% and the Z score was 0.96. For C[C@@H](c1ccccc1)n1ccc(NC(=O)c2ccc(=O)n(C)c2)n1, the “% Inhibition” value was 3% and the Z score was -0.29. CCC1CN(C(=O)c2ccc3nccn3c2)CC(C)[S+]1[O-] (stereo unspecified) was tested, and the “% Inhibition” value was -13% and the Z score was 2.01. For CCC(C(=O)Nc1cc(C)on1)(C(F)(F)F)C(F)(F)F, the “% Inhibition” value was 42% and the Z score was -5.42. In the case of CC[C@H](NCC(=O)N(Cc1ccccc1)c1ccccc1)c1cccc(S(N)(=O)=O)c1, the “% Inhibition” value was -9% and the Z score was 1.15. In the case of O=C1CN(c2ncc(C(F)(F)F)s2)CN1CCC(F)(F)F, the “% Inhibition” value was -2% and the Z score was 0.25. For CC(c1cn(-c2ccccc2)nn1)N1CCCC(CS(N)(=O)=O)C1 (stereo unspecified), the “% Inhibition” value was -1% and the Z score was 0.12. For CC(=O)NC[C@H]1Cn2cc(-c3ccccc3)nc2CO1, the “% Inhibition” value was 27% and the Z score was -3.01. CO[C@@H]1C[C@@H](c2nc(C3CC3)n[nH]2)N(Cc2cc(C#N)ccc2F)C1 was tested, and the “% Inhibition” value was -10% and the Z score was 1.41. With COc1ccc(CCNC(=O)[C@H]2CCCN(c3nc4ccccc4[nH]3)C2)cc1OC the “% Inhibition” value was 4% and the Z score was -0.66. In the case of CC(C)c1nc([C@H]2CCCN(c3ncnc4nc[nH]c34)C2)no1, the “% Inhibition” value was 2% and the Z score was -0.32. With CN(C)[C@H]1CCCCN(Cc2nc(-c3ccccc3)cs2)C1 the “% Inhibition” value was -7% and the Z score was 1.12. With O=C1C[C@H](NCc2c(Cl)cccc2N2CCOCC2)CN1C1CC1 the “% Inhibition” value was -8% and the Z score was 1.53. Cc1ccc(CNC(=O)CN(C2CCC(C)CC2)C2CCC(O)CC2)cc1 (stereo unspecified) was tested, and the “% Inhibition” value was -6% and the Z score was 0.8. In the case of C[C@@H](CNC(=O)c1ccc2cnccc2n1)N(C)C1CC1, the “% Inhibition” value was -14% and the Z score was 1.81. O=C(CCC1CCCCC1)Nc1ccc2c3c(cccc13)C(=O)NC2=O was tested, and the “% Inhibition” value was 5% and the Z score was -0.59. C[C@]1(CO)CCCN(Cc2ccccc2OCC(=O)N2CCCCC2)C1 was tested, and the “% Inhibition” value was -1% and the Z score was 0.19. With CN(CC1CCC1)C(=O)[C@@H]1CCCN1c1ncnc2sccc12 the “% Inhibition” value was -1% and the Z score was 0.12. For CS(=O)(=O)C1(C(=O)NC(C2CCCC2)C2CCCC2)CCCC1, the “% Inhibition” value was -5% and the Z score was 0.79. For O=C(c1n[nH]c2c1CCC2)N1CCOC[C@@H](O)C1, the “% Inhibition” value was -11% and the Z score was 2.05. For CN(C(=O)Nc1cccc(OCc2ccc(Cl)cc2)c1)[C@H]1C[C@@H](C(N)=O)C1, the “% Inhibition” value was -12% and the Z score was 1.26. For O=C(c1cncc(N2CCOCC2)c1)N1CCn2c1nc1ccccc12, the “% Inhibition” value was -9% and the Z score was 1.5. With COc1ccc(-c2noc([C@H](C)NC(=O)c3cnc[nH]c3=O)n2)cc1OC the “% Inhibition” value was -2% and the Z score was 0.28. In the case of N#Cc1cccc(COc2cccc(CN[C@H]3CCCCNC3=O)c2)c1, the “% Inhibition” value was -7% and the Z score was 0.76. With c1cnc(-c2n[nH]c(CCC3CCCC3)n2)nc1 the “% Inhibition” value was -13% and the Z score was 1.94. CN(C)[C@@H]1CN(C(=O)c2ccc3cc[nH]c3c2)CC[C@@H]1CO was tested, and the “% Inhibition” value was 0% and the Z score was 0.02. In the case of Cc1ccc(-c2[nH]c3c(c2[C@H]2C(=O)Nc4ccccc42)c(=O)[nH]c(=O)n3C)cc1, the “% Inhibition” value was -9% and the Z score was 0.95. For CN1CCN(S(=O)(=O)c2ccc(Br)c3nsnc23)CC1, the “% Inhibition” value was -11% and the Z score was 1.41. In the case of Cc1ccc(CS(=O)(=O)N[C@H]2CCc3n[nH]c(=O)n3CC2)cc1C, the “% Inhibition” value was -13% and the Z score was 1.97. With O=C(Cc1cn2c(n1)CCCC2)N1CCc2cc(F)c(F)cc21 the “% Inhibition” value was -3% and the Z score was 0.33. In the case of COc1ccc(CCN(Cc2nc(C(=O)NCc3cccc(C(F)(F)F)c3)cs2)Cc2ccccc2F)cc1OC, the “% Inhibition” value was -5% and the Z score was 0.71. With CCS(=O)(=O)NCC(=O)N1CCC(c2cc(C)ccc2C)CC1 the “% Inhibition” value was -10% and the Z score was 1.82. In the case of CC(C(=O)NC(=O)NC1CC1)N1CCC2C(C1)C2(F)F (stereo unspecified), the “% Inhibition” value was -10% and the Z score was 1.41. CCc1nnc(NCC2(Cn3cccn3)CC2)o1 was tested, and the “% Inhibition” value was -4% and the Z score was 0.4. For COc1ccccc1-c1noc(CN(C)c2ccccc2)n1, the “% Inhibition” value was -12% and the Z score was 1.64.

Reference: ChEMBL document CHEMBL4888484, “Replenishing the malaria drug discovery pipeline: Screening and hit evaluation of the MMV Hit Generation Library 1 (HGL1) against asexual blood stage Plasmodium falciparum ,using a nano luciferase reporter read-out” (2022)
